Usually % Inhibition stands for the change of the read-out against control, counted positive when it falls.

The campaign covered roughly 150,000 compounds. About 540 (0.36%) showed an effect of 50% or more. The list shows a part of the results.

The results in this text go back to ChEMBL document CHEMBL4888484, “Replenishing the malaria drug discovery pipeline: Screening and hit evaluation of the MMV Hit Generation Library 1 (HGL1) against asexual blood stage Plasmodium falciparum ,using a nano luciferase reporter read-out” (2022).

The test relates to Plasmodium falciparum. The test can be described thus: Primary screen in NF54 nanoGlo assay, in single point, at 2uM, 72h; a lower Z score goes with more inhibition. It counts as functional, Erythrocyte. Particulars: timepoint 72 hour.
As for `O=C(NC[C@H](NC(=O)c1ccc[nH]1)C1CCCCC1)c1ccc[nH]1`, the “% Inhibition” value was -6% and the Z score stood at 0.81.
The like results for `COC[C@H](C)NC(=O)c1cn2cc(-c3ccc(OC)cc3F)n(C)c(=O)c2n1` were, in that order, -26% and 5.17.
For `Cn1cc(S(=O)(=O)NC[C@H](OCCO)c2cccs2)cn1`, in that order: -4% and 0.43.
Consider `Cc1cc(NC(=O)N[C@@H](C)c2ccncc2)n(C)n1`, for which the “% Inhibition” value is -12% and the Z score stood at 2.18.
Consider `C[C@H](NCCC1CC(O)C1)c1c(Br)ccc(F)c1F` (some centres not stated), for which the “% Inhibition” value was -10% and the Z score was 1.74.
On to `Cc1nc2sccn2c1C(=O)NCCc1noc(CO)n1`, for which the “% Inhibition” value is on record as -5% and the Z score was found to be 0.97.
The like results for `O=C(CCC(=O)Nc1nncs1)NCC1CCOCC1` were, in that order, -9% and 1.36.
The like results for `Cc1ccc(C(=O)OCC(=O)Nc2ccc3c(c2)OCO3)cn1` were, in that order, 32% and -4.27.
For `CC(C)(C)OC(=O)N1CCN(C2CN(C(=O)OCCCF)C2)CC1`, the “% Inhibition” value is -1% and the Z score was found to be 0.2.
The like results for `CS(=O)(=O)c1ccc(CN2C[C@@H]3OCC(=O)N(c4ccccc4)[C@@H]3C2)cc1` were, in that order, -8% and 1.18.
For `O=C(c1cncc(Br)c1)N1CCCCCCC1`, in that order: -7% and 1.14.
For `Cn1c(C2CCCC2)nn(CC(F)F)c1=O`, in that order: -3% and 0.4.
Regarding `Cc1noc(C)c1CN1CCC(COc2ccc(C3CC3)nn2)CC1`, the “% Inhibition” value was -4% and the Z score came out at 0.44.
For `COCCN1C[C@@H](Cc2ccc(S(=O)(=O)c3ccccc3)cc2)CC1=O`, in that order: -3% and 0.31.
For `CCOc1cc(CCCNc2nccnc2C#N)ccc1OC`, in that order: -11% and 1.48.
The like results for `N#Cc1ccc(NC2CCC(O)CC2)cn1` (configuration not stated) were, in that order, -2% and 0.18.
With `Cc1nc2cc(OCc3nc(C(=O)N4CCN(C)C(C)(C)C4)co3)ccc2s1`, the “% Inhibition” value amounted to 0% and the Z score is on record as -0.02.
For `Cc1nn(C)c(C)c1C(=O)C(=O)N(C1CCCC1)C1CC1`, in that order: -7% and 1.16.
`Cc1cccnc1CNC(=O)Cn1ncc(N2CCc3ccccc3C2)cc1=O`: the “% Inhibition” value is 4% and the Z score was -0.49.
The like results for `Cc1cc(-n2sc(Cl)c(C)c2=O)ccc1Cl` were, in that order, -5% and 0.69.
For `CCn1c(Cc2c(C)n[nH]c2C)n[nH]c1=O`, in that order: -7% and 1.38.
The like results for `COc1ccc(CN(Cc2cc(=O)c3cc(F)ccc3[nH]2)CC(C)C)cc1OC` were, in that order, -4% and 0.68.
As for `O=C1NCCC[C@@H]1Oc1ccc(C(F)(F)F)cn1`, the “% Inhibition” value is -12% and the Z score came out at 1.57.
The like results for `CCN1CCCc2cc(C(=O)N3CCC(C)CC3)sc21` were, in that order, -12% and 2.17.
The like results for `CC(C)CN1CC2(CCN(C(=O)CCc3nc4ccccc4[nH]3)CC2)CC1=O` were, in that order, 13% and -1.65.
Turning to `O=c1[nH]c2ccccc2n1-c1ccccc1F`, the “% Inhibition” value is on record as -16% and the Z score is reported as 2.15.
For `c1ccc(Cn2c(NCc3ccncc3)nc3ccccc32)cc1`, in that order: 14% and -1.92.
For the molecule `Cc1nn(CC(C)C)c(C)c1S(=O)(=O)NC(=O)c1ccoc1`, the “% Inhibition” value was -7% and the Z score stood at 0.63.
For `Cc1cnn(CC(=O)N[C@@H]2CC=CCC2)c1`, in that order: 0% and 0.03.
Consider `COCCN(C(C)=O)c1nc(COc2cccc(F)c2F)cs1`, for which the “% Inhibition” value was -16% and the Z score was 1.49.
As to `Cc1ccc(Cl)c2ccc(NC[C@@]3(CCO)CCOC3)nc12`, the “% Inhibition” value is listed as -4% and the Z score worked out at 0.66.
For `Cn1cnc2c(C(=O)N3CC(Cc4ccoc4)C3)ccnc21`, in that order: -16% and 1.59.
As to `CC1CC(N2CCC(c3nc4cc(Cl)ccc4o3)CC2)C(=O)O1` (configuration not stated), the “% Inhibition” value was -28% and the Z score amounted to 2.81.
For `Cc1c(CNC(=O)CN2CCN(C)C(=O)C2)sc2ccc(Cl)cc12`, in that order: -21% and 3.18.
The like results for `CCOc1ncc(C)cc1NC(=O)N1CCOCC2(CC2)C1` were, in that order, -1% and 0.08.
For `C#CCNC(=O)CN(CC)C1CCCCC1`, the “% Inhibition” value came to 0% and the Z score is listed as 0.01.
Consider `CCCc1nn2c(c1-c1ccc(OC)c(S(=O)(=O)Nc3ccc(C)c(C)c3)c1)NC(=O)CCC2=O`, for which the “% Inhibition” value amounted to 10% and the Z score is -1.17.
Turning to `COc1ccc(Cc2n[nH]c(NC(=O)Cn3cc(OC)c(=O)cc3C)n2)cc1`, the “% Inhibition” value was -7% and the Z score was 0.87.
For `Cc1nccc(CNC(=O)CC2(C)CCCCC2)n1`, in that order: -10% and 1.9.
For `Cc1ccc(CNC(=O)CCC(=O)N2C[C@@H]3CCCN3c3ccccc32)o1`, in that order: -6% and 0.69.
For `Cn1cccc1-c1noc([C@H]2CCN(C(=O)c3ccc4ncccc4c3)C2)n1`, in that order: -21% and 2.71.
Regarding `Cc1ccsc1C(=O)NC[C@H]1Cc2ccccc2O1`, the “% Inhibition” value is reported as -9% and the Z score was found to be 1.35.
For the molecule `Cc1c(F)cccc1C(=O)N1CCN(CCN2CCCC2)C[C@H](O)C1`, the “% Inhibition” value is reported as -7% and the Z score came to 1.25.
Regarding `COCCn1cc(NC(=O)N(C)C2CCCC(C)C2)cn1` (configuration not stated), the “% Inhibition” value is given as -11% and the Z score is given as 1.05.
For the molecule `C[C@@H](Cn1ccnc1)NC(=O)c1ccc2c(c1)CCCC2`, the “% Inhibition” value is 3% and the Z score is listed as -0.59.
Consider `COCCN(C)C(=O)c1nn(Cc2ccc(F)cc2)c2c1COCC2`, for which the “% Inhibition” value was -10% and the Z score was 1.21.
The like results for `O=C(N[C@H](c1ccccc1)c1nc2ccccc2[nH]1)c1[nH]nc2c1CCC2` were, in that order, -9% and 1.16.
As for `Cc1sc(-c2nc(-c3ccc(F)cc3)no2)cc1S(=O)(=O)N1CCOCC1`, the “% Inhibition” value was -7% and the Z score stood at 0.83.
For `O=C(Cn1nccn1)NCC[C@H]1CCOC1`, in that order: -5% and 0.5.
As to `CN(C)C(=O)C1C[C@@H]2OCC[C@@H]2N1C(=O)CCS(=O)(=O)C1CCCC1` (some centres not stated), the “% Inhibition” value was 3% and the Z score is reported as -0.51.
For `CC(C)CN(CC(C)C)c1nc(-c2cccnc2)nc2ccccc12`, the “% Inhibition” value was -10% and the Z score is given as 1.29.
For `C[C@@]1(C(N)=O)CCCCN1Cc1csc(-c2ccccn2)n1`, the “% Inhibition” value is reported as -9% and the Z score was 1.07.
For `CC[C@H](NC(=O)N1CCC2(CC1)C(=O)N(C)C(=O)N2C)c1cc(C)ccn1`, in that order: -9% and 1.47.
The like results for `C=C[C@@H]1CCCCN1C(=O)C1CC(F)(F)C1` were, in that order, -11% and 1.14.
The like results for `Cc1ccc2nc(NC(=O)c3ccc(NC(=O)CCS(=O)(=O)c4cccs4)cc3)sc2c1` were, in that order, -11% and 1.27.
In the case of `COCCC1(C(=O)N2CC3CCCC3C2)CCC1` (configuration not stated), the “% Inhibition” value is on record as -22% and the Z score was found to be 1.98.
For `CC(C)c1cnc(-c2ccc(NC(=O)N[C@H]3CCN(C)C3=O)cc2)o1`, the “% Inhibition” value was determined as 1% and the Z score was -0.13.
Regarding `COCCCCC(=O)N(C)c1cccc(C(C)C)c1`, the “% Inhibition” value is listed as -4% and the Z score turned out to be 0.67.
In the case of `COc1ccc2cc1OCCn1cc(nn1)CO[C@H]1CN(Cc3nc(C(F)(F)F)no3)C[C@@H]1NC2=O`, the “% Inhibition” value is -3% and the Z score was 0.55.
With `CC[C@H](C)CN(CC)C(=O)c1ccc(C(=O)O)cc1F`, the “% Inhibition” value is given as -1% and the Z score was determined as 0.15.
In the case of `CCCn1ncc(CN(C)Cc2csc(C)n2)c1C`, the “% Inhibition” value is listed as -7% and the Z score came to 1.3.
`CC(C)c1ccnc(N2CCN(C(=O)c3ccnc(C4CC4)n3)CC2)n1`: the “% Inhibition” value turned out to be 14% and the Z score is -1.73.
For `C[C@H]1CN(Cc2nnc(C3CC3)n2C)CCN1C(=O)OC(C)(C)C`, in that order: -6% and 0.97.
As for `CNC(=O)C1(C(=O)N2CCN(CC(C)(C)O)CC2)CCC1`, the “% Inhibition” value is -8% and the Z score worked out at 1.07.
The like results for `COc1ccc(C2=NN(C(=O)CN(CCN3CCOCC3)C(=O)C(C)C)[C@H](c3ccc4c(c3)OCO4)C2)cc1` were, in that order, -8% and 1.13.
On to `O=C(C1CCC(F)(F)CC1)N1CCCO1`, for which the “% Inhibition” value is on record as 4% and the Z score is reported as -0.57.
For `O=C(NC1CCN(C(=O)c2cc3c(s2)CCCCCC3)CC1)c1ccncc1`, in that order: -31% and 3.65.
For `CC(=O)N1CCCN(c2nnc(C)c3c(C)n(-c4ccc(C)cc4)nc23)CC1`, in that order: -10% and 1.49.
The like results for `CC1CN(C(C)C)CC1NS(=O)(=O)Cc1ccon1` (configuration not stated) were, in that order, -3% and 0.45.
In the case of `O=C(c1ccc2c(c1)OCCCO2)N1CCN(S(=O)(=O)c2cccc(F)c2)CC1`, the “% Inhibition” value was -10% and the Z score is 1.9.
Consider `O=C(Cc1csc(-c2ccc(Cl)s2)n1)NC[C@H]1CCCN1`, for which the “% Inhibition” value was 3% and the Z score is -0.46.
On to `Cc1ccc(CCN2C(=O)CC[C@@H]3CN(c4ncccc4F)CC[C@@H]32)o1`, for which the “% Inhibition” value is reported as -6% and the Z score was found to be 0.71.
For `O=C(Nc1cc(C(F)(F)F)n[nH]1)c1cc2n(n1)CCCO2`, in that order: -11% and 1.52.
For `Cc1ccc([C@H](CCO)NC(=O)c2cnc(C3CC3)[nH]c2=O)cc1`, in that order: -7% and 1.34.
For `Cn1ncc2c(N3CCC(Cn4nc(C(C)(C)C)ccc4=O)CC3)ncnc21`, in that order: 10% and -1.3.
For the molecule `CC(C)C[C@H]1C(=O)N2C[C@@H](N(C)C)C[C@H]2CN1C(=O)COCc1ccccc1`, the “% Inhibition” value is given as -25% and the Z score is 2.19.
For the molecule `CC(C)c1nsc(NCCCOCC2CC2)n1`, the “% Inhibition” value is -12% and the Z score worked out at 1.6.
For `FC(F)(F)c1ccc(-n2nnnc2COc2nnc(-c3ccccc3)o2)cc1`, in that order: 2% and -0.45.
`CCCC[C@H](N)C(=O)N(C)CC1CCOCC1`: the “% Inhibition” value is reported as -11% and the Z score is recorded as 1.2.
For `FC(F)CN1CCC(NCC=Cc2ccccc2)CC1`, in that order: -7% and 0.89.
Regarding `Nc1nc(-c2ccc(F)c3cccnc23)c2nc[nH]c2n1`, the “% Inhibition” value is recorded as -3% and the Z score amounted to 0.5.
For `COc1cccc(NC(=O)CN2CN(c3ccccc3)C3(CCN(C(=O)Nc4ccccc4OC)CC3)C2=O)c1`, in that order: -10% and 1.3.
For `CCC[C@H]1CN(c2noc(-c3ccccc3)n2)C[C@@H]1N(C)C`, in that order: -6% and 1.08.
The like results for `Cn1ncc(Br)c1CC(=O)N1CCC(=O)N2CCC[C@@H]21` were, in that order, -5% and 0.6.
Take `Cc1cc(N2CCC[C@H](CC(F)(F)F)C2)ccn1`: the “% Inhibition” value amounted to 1% and the Z score is reported as -0.14.
For `Cc1nc2ccc(/C=C/C=C/c3ccccc3)cc2s1`, in that order: -2% and 0.2.
